# In PubChem BioAssay AID651820 (National Center for Advancing Translational Sciences (NCATS), 2012):
# About 12,000 (3.5%) of roughly 340,000 compounds were called active. The inconclusive results got no clear call from the source; some entries with a clear call stand among them for comparison. The call rests on the fitted dose curve; in most records, active means well fitted inhibition curve with a large enough effect; inconclusive means small, poorly fitted or top-dose-only effect, or another doubt; inactive means no such curve, though single readings can be large or run the other way. Potencies of inconclusive entries are left out as doubtful fits.
# Assay: qHTS Assay for Inhibitors of Hepatitis C Virus (HCV)
# Settings: Huh7.5.1 HCVcc-Cre (HCVcc is cell-culture hepatitis C virus) infection, luciferase reporter, 44 h; series mostly up to 41.8 µM
# Outline: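 Antiviral activity was scored by luciferase reporter output from cells infected with HCVcc-Cre (~0.5 moi) in presence of compound, 44 h infection period, cells seeded 1,000/well 4 h prior.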
# Potency means the concentration at half of the fitted maximal effect; tags describe the fitted curve by direction and shape.
row,SMILES,Potency
1,Oc1ccccc1-c1cc(C(F)(F)C(F)F)nc(-c2ccccc2)n1,"inconclusive [inhibitor, partial curve]"
2,COc1ccc(NC(=O)/C=C/c2cccc(F)c2)cn1,"inconclusive [inhibitor, partial curve]"
3,CCn1c(SCc2ccccc2)nnc1-c1ccc(S(=O)(=O)N2CCCCC2)cc1,"inconclusive [inhibitor, partial curve]"
4,C=CCNc1nc(Nc2ccc(OC)cc2OC)nc(OCC)n1,"inconclusive [inhibitor, partial curve, poor fit]"
5,COc1cccc(CC(=O)Nc2sc3c(c2C(N)=O)CCCC3)c1,"inconclusive [inhibitor, partial curve]"
6,CCc1ccc2[nH]c(=O)c(CN(Cc3ccc4c(c3)OCO4)C(=O)c3ccco3)cc2c1,"inconclusive [inhibitor, single point]"
7,CCc1ccc(C(=O)CN2C(=O)NC3(CCCCCC3)C2=O)cc1,active: 11.2 µM
8,Oc1ccc(-c2nc3ccccn3c2NCc2ccco2)cc1,"inconclusive [inhibitor, single point]"
9,CCOc1nc(NC(=O)NC(=O)c2ccccc2)nc(-c2ccccc2)n1,"inconclusive [inhibitor, partial curve]"
10,CCc1ccccc1NC(=O)CNC(=O)c1cc(C2CC2)nc2c1cnn2C(C)C,"inconclusive [inhibitor, full curve]"
11,CC(CC(=O)O)CC(=O)Nc1nncs1 (configuration not stated),inactive
12,COc1ccc(NC(=O)CSc2nnc(C)s2)cc1S(=O)(=O)N1CCOCC1,inactive
13,O=C(NCc1ccco1)c1cc2nc(-c3ccc4c(c3)OCO4)cc(C(F)(F)F)n2n1,"inconclusive [inhibitor, full curve]"
14,Cc1cc(O)c2c(c1)OC(C)(C)C1=C2CC(C)CC1 (configuration not stated),active: 12.6 µM
15,CCOC(=O)c1ccc(NC(=O)c2cccc(S(=O)(=O)N3c4ccccc4CC3C)c2)s1 (configuration not stated),"inconclusive [inhibitor, full curve]"
16,CC12CCC3c4ccc(OC(=O)N(CCCl)CCCl)cc4CCC3C1CCC2O (configuration not stated),"inconclusive [inhibitor, single point]"
17,O=C(Nc1c(C(=O)N2CCOCC2)oc2ccccc12)c1cccc([N+](=O)[O-])c1,"inconclusive [inhibitor, partial curve]"
18,COc1ccc(C(=O)c2cn[nH]c2-c2cc(Cl)ccc2O)cc1,"inconclusive [inhibitor, single point]"
19,COc1cccc(C(=O)COC(=O)c2ccc(NC(=O)c3ccccc3)cc2)c1,"inconclusive [inhibitor, single point]"
20,CCCCSc1nc2c(c(=O)n1CC)SC(C)C2 (configuration not stated),"inconclusive [inhibitor, single point]"
21,Cc1nc(C)c(C(=O)N(c2ccc(C)c(C)c2)C(C(=O)NCc2ccco2)c2ccccc2)s1 (configuration not stated),"inconclusive [inhibitor, single point]"

row,SMILES,Potency
1,Cc1ccc(/C=C/c2ccc(=O)n(Cc3ccccc3Cl)n2)cc1,"inconclusive [inhibitor, single point]"
2,COc1ccc(N2CCN(C(=O)CCNC(=O)c3ccccc3)CC2)cc1,inactive
3,O=C(Nc1ccc(Cl)cc1)c1cccc(N2C(=O)C3C4CCC(C4)C3C2=O)c1 (configuration not stated),"inconclusive [inhibitor, single point]"
4,CC(OC(=O)c1cccc(-n2cnnn2)c1)C(=O)Nc1cccc(Cl)c1 (configuration not stated),active: 8.91 µM
5,O=C(NNc1c(Cl)cccc1Cl)c1ccno1,inactive
6,Cc1nn(C(C)C(=O)NC2CCC(C)CC2)c(=O)c2nn(-c3ccccc3)c(C)c12 (configuration not stated),"inconclusive [inhibitor, single point]"
7,COc1ccc(-c2csc(N(CCCN(C)C)C(=O)c3ccc(Br)cc3)n2)cc1,"inconclusive [inhibitor, partial curve]"
8,CN(C)c1ccc(-c2noc(C3CCN(C(=O)Nc4ccc(Cl)cc4)CC3)n2)cc1,"inconclusive [inhibitor, full curve, poor fit]"
9,O=C(Nc1nnc(-c2ccc(F)cc2)o1)c1cc(Cl)sc1Cl,"inconclusive [inhibitor, partial curve]"
10,Cc1c(Cl)cn2c(=O)cc(CN3CCN(c4ccccc4)CC3)nc2c1Cl,"inconclusive [inhibitor, single point]"
11,COc1ccc(OCCSc2nc3ccccc3c(=O)[nH]2)cc1,"inconclusive [inhibitor, single point]"
12,CC(=O)c1c(C(C)=O)c(C)n(-c2nc(-c3ccc(C)c(C)c3)c(C)s2)c1C,"inconclusive [inhibitor, single point]"
13,CCOC(=O)C(NC(=O)Nc1ccc(F)cc1F)(Oc1ccccc1)C(F)(F)F (configuration not stated),inactive
14,CCCCOC(=O)c1ccc(NC(=O)c2cc(Cl)c(Cl)cc2C(=O)O)cc1,inactive
15,CN1CCN(CC(=O)Nc2ccc([N+](=O)[O-])cc2C(=O)c2ccccc2)CC1,"inconclusive [inhibitor, partial curve]"
16,CCCSc1ccc([C@H]2N[C@@](Cc3ccccc3)(C(=O)OC)[C@H]3C(=O)N(C)C(=O)[C@@H]23)cc1,"inconclusive [inhibitor, single point]"
17,Cc1cc(N/N=C/c2ccc(N(C)C)cc2)nc(NCc2ccccc2)n1,"inconclusive [inhibitor, partial curve]"
18,CCCCC(=O)NC(c1ccc(OC)c(OC)c1)c1ccc2cccnc2c1O (configuration not stated),"inconclusive [inhibitor, full curve]"
19,Cn1cccc1-c1nc2ccc(NC(=O)c3ccccc3)cc2[nH]1,"inconclusive [inhibitor, partial curve]"
20,CCOc1cc(-c2nc3ccccc3s2)ccc1O,"inconclusive [inhibitor, single point]"
21,COc1ccc(CCNC(=O)CC2C(=O)NCCN2CC(C)(C)C)cc1 (configuration not stated),inactive
